# B1: hB273-vc-MMAE: antibody drug conjugate of hB273 conjugated with mc-vc-MMAE, average drug loading about 3.5 to 4.5 (conjugate)
# heavy: EVQLVQSGAEVKKPGASVKVSCKASGYSFIGYFMNWMKQSPGMSLEWIGRFNPYNEDTFYNQKFKGKATLTVDKSTSTAYMELSSLRSEDTAVYFCARSAYYFDSGGYFDYWGQGTLVTVSSASTKGPSVFPLAPSSKSTSGGTAALGCLVKDYFPEPVTVSWNSGALTSGVHTFPAVLQSSGLYSLSSVVTVPSSSLGTQTYICNVNHKPSNTKVDKRV[sequence of human IgG1 Fc omitted]
# light: DIVMTQSPLSLPVTPGEPASISCRSSQSLVHSNKNTYLHWYLQKPGQSPQLLIYKVSNRFSGVPDRFSGSGSGTDFTLKISRVEAEDVGVYYCSQSTHVPWTFGPGTKVEIKRTVAAPSVFIFPPSDEQLKSGTASVVCLLNNFYPREAKVQWKVDNALQSGNSQESVTEQDSKDSTYSLSSTLTLSKADYEKHKVYACEVTHQGLSSPVTKSFNRGEC
# B2: hB273: Humanized anti-DR5 antibody B273, heavy chain SEQ ID NO:9 (or residues 1-451), light chain SEQ ID NO:10 (antibody)
# heavy: B1 heavy
# light: B1 light
# modifications: synthetic anti-human death receptor 5 (DR5, TRAIL-R2) monoclonal antibody hB273 heavy chain; synthetic anti-human death receptor 5 (DR5, TRAIL-R2) monoclonal antibody hB273 light chain
# Columns and labels:
# [1] = tested on: Human colorectal adenocarcinoma cell line HCT-116; assay: HCT 116 xenograft model; assay type: in vivo, nude mice; conditions: 3 mg/kg iv Days 11, 18, 25, FIG. 16
# [2] = tested on: Human lung adenocarcinoma cell line NCI-H1975; assay: NCI-H1975 xenograft model; assay type: in vivo, nude mice; conditions: 3 mg/kg iv Days 13, 20, 27, FIG. 20
# [3] = tested on: Human colorectal adenocarcinoma cell line LoVo; assay: LoVo xenograft model; assay type: in vivo, nude mice; conditions: 3 mg/kg iv Days 10, 17, 24, FIG. 18
# [4] = tested on: all tumor cell lines used for this assay; assay: In vitro cytotoxic activity, CellTiter Glo cell viability, all 12 tumor cell lines; assay type: cell-based; conditions: 72 hr, with goat anti-human IgG Fc antibody, FIGS. 1-12
# [5] = tested on: LoVo (human colorectal adenocarcinoma); assay: In vitro cytotoxic activity, CellTiter Glo cell viability, LoVo; assay type: cell-based; conditions: 72 hr, with goat anti-human IgG Fc antibody, FIG. 5
# [6] = tested on: Human ovarian adenocarcinoma cell line SK-OV-3; assay: SK-OV-3 xenograft model; assay type: in vivo, nude mice; conditions: 3 mg/kg iv Days 14, 21, 28, FIG. 22
# [7] = tested on: Human ovarian carcinoma cell line A2780; assay: A2780 xenograft model; assay type: in vivo, nude mice; conditions: 3 mg/kg iv Days 11, 18, 25, FIG. 14
# [8] = tested on: Caki-2 (human renal cell carcinoma); assay: In vitro cytotoxic activity, CellTiter Glo cell viability, Caki-2; assay type: cell-based; conditions: Caki-2, 72 hr, with goat anti-human IgG Fc antibody, FIG. 8
# [9] = tested on: Human glioblastoma cell line U-87 MG; assay: U-87 MG xenograft model; assay type: in vivo, nude mice; conditions: 3 mg/kg iv Days 7, 14, 21, FIG. 23
# [10] = tested on: Human melanoma cell line A375; assay: A375 xenograft model; assay type: in vivo, nude mice; conditions: 1 mg/kg ADC vs 3 mg/kg hB273 iv Days 14, 21, 28, FIG. 13
# [11] = tested on: Human lung adenocarcinoma cell line NCI-H2122; assay: NCI-H2122 xenograft model; assay type: in vivo, nude mice; conditions: 1 mg/kg iv Days 15, 22, 29, FIG. 21
# [12] = tested on: Human renal cell carcinoma cell line Caki-2; assay: Caki-2 xenograft model; assay type: in vivo, nude mice; conditions: 3 mg/kg iv Days 18, 25, 32, FIG. 15
# [13] = tested on: Human colorectal adenocarcinoma cell line HCT-15; assay: HCT-15 xenograft model; assay type: in vivo, nude mice; conditions: 3 mg/kg iv Days 9, 16, 23, FIG. 17
# [14] = tested on: A549 (human lung adenocarcinoma); assay: In vitro cytotoxic activity, CellTiter Glo cell viability, A549; assay type: cell-based; conditions: A549, 72 hr, with goat anti-human IgG Fc antibody, FIG. 7
# [15] = tested on: Human lung carcinoma cell line NCI-H1299; assay: NCI-H1299 xenograft model; assay type: in vivo, nude mice; conditions: 3 mg/kg iv Days 14, 21, 28, FIG. 19
molecule,measurement,setting,value
B1,anti-tumor efficacy compared with hB273,[1],more potent anti-tumor efficacy than hB273
same,anti-tumor efficacy compared with hTRA-8-mcMMAF,[1],more potent anti-tumor efficacy than hTRA-8-mcMMAF
same,anti-tumor efficacy compared with hB273,[2],more potent anti-tumor efficacy than hB273
same,anti-tumor efficacy compared with hTRA-8-mcMMAF,[2],more potent anti-tumor efficacy than hTRA-8-mcMMAF
same,anti-tumor efficacy compared with hB273,[3],more potent anti-tumor efficacy than hB273
same,anti-tumor efficacy compared with hTRA-8-mcMMAF,[3],more potent anti-tumor efficacy than hTRA-8-mcMMAF
same,cytotoxic activity compared with hTRA-8-mcMMAF,[4],more potent cytotoxic activity than hTRA-8-mcMMAF
same,cytotoxic activity compared with hB273,[5],more potent cytotoxic activity than hB273
same,anti-tumor efficacy compared with hB273,[6],more potent anti-tumor efficacy than hB273
same,anti-tumor efficacy compared with hTRA-8-mcMMAF,[6],more potent anti-tumor efficacy than hTRA-8-mcMMAF
same,anti-tumor efficacy compared with hB273,[7],more potent anti-tumor efficacy than hB273
same,anti-tumor efficacy compared with hTRA-8-mcMMAF,[7],more potent anti-tumor efficacy than hTRA-8-mcMMAF
same,cytotoxic activity compared with hB273,[8],more potent cytotoxic activity than hB273
same,anti-tumor efficacy compared with hB273,[9],more potent anti-tumor efficacy than hB273
same,anti-tumor efficacy compared with hTRA-8-mcMMAF,[9],more potent anti-tumor efficacy than hTRA-8-mcMMAF
same,anti-tumor efficacy compared with hB273,[10],more potent anti-tumor efficacy than hB273
same,anti-tumor activity compared with hB273,[11],less effective than that of hB273
same,anti-tumor efficacy compared with hTRA-8-mcMMAF,[11],more potent anti-tumor efficacy than hTRA-8-mcMMAF
same,anti-tumor activities,[12],none
same,anti-tumor activity compared with hB273,[13],less effective than that of hB273
same,cytotoxic activity compared with hB273,[14],more potent cytotoxic activity than hB273
same,anti-tumor efficacy compared with hB273,[15],more potent anti-tumor efficacy than hB273
same,anti-tumor efficacy compared with hTRA-8-mcMMAF,[15],more potent anti-tumor efficacy than hTRA-8-mcMMAF
B2,anti-tumor activities,[12],none
